{"source": "patent US10532068B2", "about": "“Dual molecular delivery of oligonucleotides and peptide containing conjugates” (Merck Sharp & Dohme Corp., priority 2013, dated 2020)", "test_system": "CTNNB1", "assay": "In vivo evaluation in mice: liver mRNA knockdown measurement (TaqMan qPCR)", "design": "species or system CD-1 mice", "protocol": "Female CD-1 mice (Charles River) were injected in accordance with either a sequential dosing paradigm or a co-dosing paradigm. In the sequential dosing paradigm, the targeted siRNA (SCE) is dosed at t=0 and the targeted peptide is separately dosed up to 2 hr before the SCE (−2 hr) or up to 24 hr after the SCE (+24 hr). In the co-dosing paradigm, the SCE and peptides are co-formulated and dosed together in the same formulation as a single injection at t=0. The mice were dosed either by intravenous (i.v.) or subcutaneous (s.c.) injection of SCE and peptide. For the i.v. doses, the compounds were injected into the tail vein of the mice. For the s.c. doses, the compounds were injected in the subcutaneous space on the back of the mouse between the shoulder blades. At the indicated harvest times (measured from t=0 when the siRNA was dosed, regardless of when the peptide was dosed), the animals were sacrificed and 3 mm liver punches were collected, preserved in RNAlater (Ambion), and stored at 4° C. Separate 5 mm liver punches were collected, placed in 96-well plates, frozen on dry ice, and stored at −80° C. until use.\nThe 3 mm liver punches were removed from RNAlater and homogenized in Trizol (Invitrogen) using a bead mill tissue lyser (Qiagen); disruption was performed for two 5-minute cycles at 30 Hz. RNA extraction was performed using 1-bromo-2-chloropropane (Acros Organics) and total RNA was isolated from the aqueous phase using the MagMax RNA isolation method (Ambion). […] TaqMan qPCR analysis was performed with an ABI 7900 Real-Time PCR System using TaqMan Fast Advanced Master Mix (Applied Biosystems). All TaqMan probes and primers for CTNNB1 and PPIB (housekeeping gene) were purchased from Applied Biosystems as pre-validated gene expression assays. Results are calculated by the comparative Ct method, where the difference between the CTNNB1 Ct value and the PPIB Ct value (ΔCt) is calculated and then further normalized relative to the PBS control by taking a second difference (ΔΔCt), as described previously (1).", "key": {"[1]": {"settings": "Table 6, mice, sequential, peptide IV 15 min after siRNA IV, TGN-L-siRNA-III 0.25 mg/kg, peptide 10 mg/kg"}}, "note": "Not every detail of the peptide structures is certain; ends, links or a residue may be inferred. *1 amine or outer side, *2 acyl side, *3 side chain or, on linkers, in order; H or OH if unused. Where a SMILES comes first, the peptide text is derived from it. [ ]: non-standard residue; d: D form. The star is where a group is joined. X1 = CC(=O)N[C@H]1[C@H](OCCOCCn2cc(CN(CCCC[C@@H](C(=O)NCCS*)N(Cc3cn(CCOCCO[C@@H]4O[C@H](CO)[C@H](O)[C@H](O)[C@H]4NC(C)=O)nn3)Cc3cn(CCOCCO[C@@H]4O[C@H](CO)[C@H](O)[C@H](O)[C@H]4NC(C)=O)nn3)Cc3cn(CCOCCO[C@@H]4O[C@H](CO)[C@H](O)[C@H](O)[C@H]4NC(C)=O)nn3)nn2)O[C@H](CO)[C@H](O)[C@@H]1O; X2 = CC(=O)N[C@H]1[C@H](OCCOCCn2cc(CN(CCCC[C@@H](C(=O)*)N(Cc3cn(CCOCCO[C@@H]4O[C@H](CO)[C@H](O)[C@H](O)[C@H]4NC(C)=O)nn3)Cc3cn(CCOCCO[C@@H]4O[C@H](CO)[C@H](O)[C@H](O)[C@H]4NC(C)=O)nn3)Cc3cn(CCOCCO[C@@H]4O[C@H](CO)[C@H](O)[C@H](O)[C@H]4NC(C)=O)nn3)nn2)O[C@H](CO)[C@H](O)[C@@H]1O; PABC = O=C(OCc1ccc(N[*:1])cc1)[*:2]; Cit = NC(=O)NCCC[C@H](N)C(=O)O", "data": [{"smiles": "CC[C@@H](C)[C@@H](NC(=O)[C@@H](CCC(=O)O)NC(=O)CNC(=O)[C@@H](Cc1ccccc1)NC(=O)[C@@H](CC(C)C)NC(=O)CNC(=O)[C@@H](CSSCCNC(=O)[C@H](CCCCN(Cc1cn(CCOCCO[C@@H]2O[C@H](CO)[C@H](O)[C@H](O)[C@H]2NC(C)=O)nn1)Cc1cn(CCOCCO[C@@H]2O[C@H](CO)[C@H](O)[C@H](O)[C@H]2NC(C)=O)nn1)N(Cc1cn(CCOCCO[C@@H]2O[C@H](CO)[C@H](O)[C@H](O)[C@H]2NC(C)=O)nn1)Cc1cn(CCOCCO[C@@H]2O[C@H](CO)[C@H](O)[C@H](O)[C@H]2NC(C)=O)nn1)NC(C)=O)C(=O)N[C@H](CCC(=O)O)C(=O)N[C@H](CCC(=O)O)C(=O)N[C@H](CC(C)C)C(=O)N[C@@H](C(=O)N[C@H](CCC(=O)O)C(=O)N[C@H](CCC(=O)O)C(=O)NCC(=O)N[C@H](CC(C)C)C(=O)N[C@H](CCC(=O)O)C(=O)N[C@H](CC(N)=O)C(=O)N[C@H](CC(C)C)C(=O)N[C@@H](C(=O)N[C@H](CC(=O)O)C(=O)N[C@H](Cc1c[nH]c2ccccc12)C(=O)N[C@H](Cc1c[nH]c2ccccc12)C(=O)N[C@H](CC(N)=O)C(=O)NCC(N)=O)[C@H](C)CC)[C@H](C)CC", "note": "[TGN-S-S-SEQ ID NO: 1710 (D)]", "values": [{"measurement": "In vivo mRNA knockdown (%)", "setting": "Table 6, mice, sequential, peptide IV 15 min after siRNA IV, TGN-L-siRNA-III 0.25 mg/kg, peptide 5 mg/kg", "value": 50, "unit": "%"}, {"measurement": "In vivo mRNA knockdown (%)", "setting": "[1]", "value": 69, "unit": "%"}, {"measurement": "In vivo mRNA knockdown (%)", "setting": "Table 6, mice, sequential, peptide IV 15 min after siRNA IV, TGN-L-siRNA-III 0.5 mg/kg, peptide 18 mg/kg", "value": 68, "unit": "%"}, {"measurement": "In vivo mRNA knockdown (%)", "setting": "Table 6, mice, sequential, peptide IV 15 min after siRNA IV, TGN-L-siRNA-III 0.5 mg/kg, peptide 25 mg/kg", "value": 63, "unit": "%"}, {"measurement": "In vivo mRNA knockdown (%)", "setting": "Table 6, mice, sequential, peptide IV 15 min after siRNA IV, siRNA-IV 0.5 mg/kg, peptide 2 mg/kg", "value": 30, "unit": "%"}, {"measurement": "In vivo mRNA knockdown (%)", "setting": "Table 6, mice, sequential, peptide IV 15 min after siRNA IV, siRNA-IV 0.5 mg/kg, peptide 10 mg/kg", "value": 67, "unit": "%"}, {"measurement": "In vivo mRNA knockdown (%)", "setting": "Table 6, mice, sequential, peptide IV 15 min after siRNA IV, siRNA-IV 2 mg/kg, peptide 2 mg/kg", "value": 58, "unit": "%"}, {"measurement": "In vivo mRNA knockdown (%)", "setting": "Table 6, mice, sequential, peptide IV 15 min after siRNA IV, siRNA-IV 2 mg/kg, peptide 10 mg/kg", "value": 64, "unit": "%"}, {"measurement": "In vivo mRNA knockdown (%)", "setting": "Table 6, mice, sequential, peptide IV 15 min after siRNA IV, siRNA-IV 5 mg/kg, peptide 2 mg/kg", "value": 66, "unit": "%"}, {"measurement": "In vivo mRNA knockdown (%)", "setting": "Table 6, mice, sequential, peptide IV 15 min after siRNA IV, siRNA-IV 5 mg/kg, peptide 10 mg/kg", "value": 79, "unit": "%"}, {"measurement": "In vivo mRNA knockdown (%)", "setting": "Table 7, mice, TGN-L-siRNA-III 0.5 mg/kg, peptide 2 mg/kg, Sequential dosing-IV (peptide 15 min after siRNA)", "value": 60, "unit": "%"}, {"measurement": "In vivo mRNA knockdown (%)", "setting": "Table 7, mice, TGN-L-siRNA-III 0.5 mg/kg, peptide 2 mg/kg, Sequential dosing-SC (peptide 15 min after siRNA)", "value": 65, "unit": "%"}, {"measurement": "In vivo mRNA knockdown (%)", "setting": "Table 7, mice, TGN-L-siRNA-III 0.5 mg/kg, peptide 5 mg/kg, Sequential dosing-IV (peptide 15 min after siRNA)", "value": 66, "unit": "%"}, {"measurement": "In vivo mRNA knockdown (%)", "setting": "Table 7, mice, TGN-L-siRNA-III 0.5 mg/kg, peptide 5 mg/kg, Sequential dosing-SC (peptide 15 min after siRNA)", "value": 64, "unit": "%"}, {"measurement": "In vivo mRNA knockdown (%)", "setting": "Table 7, mice, TGN-L-siRNA-III 0.5 mg/kg, peptide 10 mg/kg, Sequential dosing-IV (peptide 15 min after siRNA)", "value": 75, "unit": "%"}, {"measurement": "In vivo mRNA knockdown (%)", "setting": "Table 7, mice, TGN-L-siRNA-III 0.5 mg/kg, peptide 10 mg/kg, Sequential dosing-SC (peptide 15 min after siRNA)", "value": 66, "unit": "%"}]}, {"smiles": "CC[C@H](C)[C@H](NC(=O)[C@H](CCC(=O)O)NC(=O)CNC(=O)[C@H](Cc1ccccc1)NC(=O)[C@H](CC(C)C)NC(=O)CNC(=O)[C@H](CSSCCNC(=O)[C@H](CCCCN(Cc1cn(CCOCCO[C@@H]2O[C@H](CO)[C@H](O)[C@H](O)[C@H]2NC(C)=O)nn1)Cc1cn(CCOCCO[C@@H]2O[C@H](CO)[C@H](O)[C@H](O)[C@H]2NC(C)=O)nn1)N(Cc1cn(CCOCCO[C@@H]2O[C@H](CO)[C@H](O)[C@H](O)[C@H]2NC(C)=O)nn1)Cc1cn(CCOCCO[C@@H]2O[C@H](CO)[C@H](O)[C@H](O)[C@H]2NC(C)=O)nn1)NC(C)=O)C(=O)N[C@@H](CCC(=O)O)C(=O)N[C@@H](CCC(=O)O)C(=O)N[C@@H](CC(C)C)C(=O)N[C@H](C(=O)N[C@@H](CCC(=O)O)C(=O)N[C@@H](CCC(=O)O)C(=O)NCC(=O)N[C@@H](CC(C)C)C(=O)N[C@@H](CCC(=O)O)C(=O)N[C@@H](CC(N)=O)C(=O)N[C@@H](CC(C)C)C(=O)N[C@H](C(=O)N[C@@H](CC(=O)O)C(=O)N[C@@H](Cc1c[nH]c2ccccc12)C(=O)NCC(=O)N[C@@H](CC(N)=O)C(=O)NCC(N)=O)[C@@H](C)CC)[C@@H](C)CC", "note": "[TGN-S-S-SEQ ID NO: 1709 (L)] (Ac-C(X1)GLFGEIEELIEEGLENLIDWGNG-NH2)", "values": [{"measurement": "In vivo mRNA knockdown (%)", "setting": "Table 6, mice, sequential, peptide IV 15 min after siRNA IV, TGN-L-siRNA-III 0.5 mg/kg, peptide 5 mg/kg", "value": 16, "unit": "%"}]}, {"smiles": "CC[C@@H](C)[C@@H](NC(=O)[C@@H](CCC(=O)O)NC(=O)CNC(=O)[C@@H](Cc1ccccc1)NC(=O)[C@@H](CC(C)C)NC(=O)CN)C(=O)N[C@H](CCC(=O)O)C(=O)N[C@H](CCC(=O)O)C(=O)N[C@H](CC(C)C)C(=O)N[C@@H](C(=O)N[C@H](CCC(=O)O)C(=O)N[C@H](CSSCCNC(=O)[C@H](CCCCN(Cc1cn(CCOCCO[C@@H]2O[C@H](CO)[C@H](O)[C@H](O)[C@H]2NC(C)=O)nn1)Cc1cn(CCOCCO[C@@H]2O[C@H](CO)[C@H](O)[C@H](O)[C@H]2NC(C)=O)nn1)N(Cc1cn(CCOCCO[C@@H]2O[C@H](CO)[C@H](O)[C@H](O)[C@H]2NC(C)=O)nn1)Cc1cn(CCOCCO[C@@H]2O[C@H](CO)[C@H](O)[C@H](O)[C@H]2NC(C)=O)nn1)C(=O)NCC(=O)N[C@H](CC(C)C)C(=O)N[C@H](CCC(=O)O)C(=O)N[C@H](CC(N)=O)C(=O)N[C@H](CC(C)C)C(=O)N[C@@H](C(=O)N[C@H](CC(=O)O)C(=O)N[C@H](Cc1c[nH]c2ccccc12)C(=O)NCC(=O)N[C@H](CC(N)=O)C(=O)NCC(N)=O)[C@H](C)CC)[C@H](C)CC", "note": "[TGN-S-S-SEQ ID NO: 1697 (D)] (H-G[dL][dF]G[dE][dI][dE][dE][dL][dI][dE][dC](X1)G[dL][dE][dN][dL][dI][dD][dW]G[dN]G-NH2)", "values": [{"measurement": "In vivo mRNA knockdown (%)", "setting": "[1]", "value": 52, "unit": "%"}]}, {"smiles": "CC[C@@H](C)[C@@H](NC(=O)[C@@H](C)NC(=O)CNC(=O)[C@@H](Cc1ccccc1)NC(=O)[C@@H](Cc1ccccc1)NC(=O)CNC(=O)OCc1ccc(NC(=O)[C@H](CCCNC(N)=O)NC(=O)[C@@H](NC(=O)[C@H](CCCCN(Cc2cn(CCOCCO[C@@H]3O[C@H](CO)[C@H](O)[C@H](O)[C@H]3NC(C)=O)nn2)Cc2cn(CCOCCO[C@@H]3O[C@H](CO)[C@H](O)[C@H](O)[C@H]3NC(C)=O)nn2)N(Cc2cn(CCOCCO[C@@H]3O[C@H](CO)[C@H](O)[C@H](O)[C@H]3NC(C)=O)nn2)Cc2cn(CCOCCO[C@@H]3O[C@H](CO)[C@H](O)[C@H](O)[C@H]3NC(C)=O)nn2)C(C)C)cc1)C(=O)N[C@H](Cc1c[nH]c2ccccc12)C(=O)N[C@H](CCC(=O)O)C(=O)N[C@H](Cc1ccccc1)C(=O)N[C@@H](C(=O)N[C@H](Cc1c[nH]cn1)C(=O)N[C@H](CO)C(=O)N[C@@H](C(=O)N[C@H](CC(C)C)C(N)=O)[C@H](C)CC)[C@H](C)CC", "note": "[TGN-ECL-SEQ ID NO: 1802 (D)] (X2-V[Cit][PABC]G[dF][dF]G[dA][dI][dW][dE][dF][dI][dH][dS][dI][dL]-NH2)", "values": [{"measurement": "In vivo mRNA knockdown (%)", "setting": "Table 8 (disulfide vs. ECL vs. CDM linkage), TGN-L-siRNA-II 0.25 mg/kg, targeted peptide 1 mg/kg", "value": 28.7, "unit": "%"}, {"measurement": "In vivo mRNA knockdown (%)", "setting": "Table 8 (disulfide vs. ECL vs. CDM linkage), TGN-L-siRNA-II 0.25 mg/kg, targeted peptide 3 mg/kg", "value": 64.0, "unit": "%"}]}]}
